Laboratory results published in PubChem BioAssay (NCI).
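Where inhibition never reached the appropriate level, the endpoint shown equals the highest concentration tested. Otherwise, values were interpolated linearly from a five-concentration, 48-hour dose response in 96-well plates. Abbreviation: GI50, concentration required for 50% inhibition of growth. TGI denotes the concentration required for complete inhibition of growth.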

System: NCI-H322M lung
Assay: NCI anticancer screen, dose series, 48 h

Compound | GI50 [nM] | TGI [nM]
COc1cc2c(cc1OC)/C(=C\c1sc(Nc3ccc(O)cc3)nc1O)C(C(=O)O)=N2 | 696 | > 100000
Cc1ccc(C(=O)NN2C(=O)/C(=C/C=C/c3ccc([N+](=O)[O-])o3)SC2=S)cc1 | 2230 | 6180
